The list shows a part of the results. The energies were worked out here from pooled read counts, against the library average; single values are noisy.

In the assay the target is T1, Pho4 (S. cerevisiae) (UniProt P07270).
T1 sequence: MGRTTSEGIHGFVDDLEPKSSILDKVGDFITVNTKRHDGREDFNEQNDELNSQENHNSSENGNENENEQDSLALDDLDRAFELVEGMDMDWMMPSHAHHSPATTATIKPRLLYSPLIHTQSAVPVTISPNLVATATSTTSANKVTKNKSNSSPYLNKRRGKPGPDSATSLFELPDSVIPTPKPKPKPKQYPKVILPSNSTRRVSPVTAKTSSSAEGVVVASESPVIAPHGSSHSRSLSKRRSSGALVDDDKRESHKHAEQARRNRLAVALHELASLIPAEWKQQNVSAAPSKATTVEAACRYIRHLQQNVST
As to the kind of experiment: relative binding free energy (BET-seq); higher = weaker binding. To be noted: reference: library average.
For the sequence TGGATCACGTGATAAT, the “relative binding free energy” value was found to be 0.21 kcal/mol. To TCGTGCACGTGTTTGA belongs -0.2 kcal/mol; to AGATGCACGTGCGCGG, -0.22 kcal/mol; to GTCGGCACGTGGCGTA, -0.04 kcal/mol. The same measure for GGTGGCACGTGGCAAA: -0.14 kcal/mol; for TGTTTCACGTGAGGTG: 0.46 kcal/mol.

As for AGGAGCACGTGGGTGC, the “relative binding free energy” value is -0.12 kcal/mol.

For the sequence TGAACCACGTGTTGTT, the “relative binding free energy” value was found to be 0.07 kcal/mol. The same measure for ATGTTCACGTGATGAA: 0.29 kcal/mol; for AGTATCACGTGTGTGG: 0.09 kcal/mol.

Take GGGGGCACGTGATAGA: the “relative binding free energy” value was 0.04 kcal/mol. Regarding ATGGTCACGTGTTAGA, the “relative binding free energy” value turned out to be 0.07 kcal/mol. The same measure for AAATACACGTGGGGAT: 0.08 kcal/mol; for TGAAGCACGTGTCTGA: -0.02 kcal/mol. To CCGGGCACGTGGTGGG belongs -0.15 kcal/mol; to CGTGACACGTGTGTTG, 0.06 kcal/mol. To GGCATCACGTGTGAGG belongs 0.22 kcal/mol; to TTGATCACGTGAGGGG, 0.33 kcal/mol; to AATACCACGTGGGTTT, -0.11 kcal/mol. For the sequence TCATGCACGTGGTAGG, the “relative binding free energy” value is -0.2 kcal/mol. To TGGTTCACGTGACGGG belongs 0.34 kcal/mol. The same measure for TAGGCCACGTGTTGGT: -0.07 kcal/mol; for TCTCTCACGTGTTTTG: 0.18 kcal/mol. Consider AGGTGCACGTGGTGAG, for which the “relative binding free energy” value is -0.05 kcal/mol. The same measure for GGTTGCACGTGCTTTA: -0.07 kcal/mol.

Turning to TTTATCACGTGGTATA, the “relative binding free energy” value was found to be 0.04 kcal/mol. The same measure for GTGCACACGTGGGGGT: -0.15 kcal/mol. On to TTCTGCACGTGGGAGA, for which the “relative binding free energy” value is -0.12 kcal/mol. To AGGGTCACGTGGCGGT belongs 0.12 kcal/mol; to GTATGCACGTGTTAGT, 0.07 kcal/mol; to TGTGTCACGTGATCGG, 0.1 kcal/mol. To TTGTGCACGTGGGTTG belongs -0.2 kcal/mol. To TCGTACACGTGTATGT belongs 0.09 kcal/mol. As to TTCGTCACGTGCTTGT, the “relative binding free energy” value was -0.08 kcal/mol. The same measure for GCGTGCACGTGGTTGG: 0.06 kcal/mol; for ATTCGCACGTGAGGTT: 0.19 kcal/mol; for GTCTGCACGTGGGGAA: -0.04 kcal/mol.

For TGTTACACGTGTGTTG, the “relative binding free energy” value stood at 0.09 kcal/mol. In the case of TGTATCACGTGTCAAT, the “relative binding free energy” value was determined as 0.05 kcal/mol. To CTGGGCACGTGTGCGT belongs -0.12 kcal/mol.

As to GCATTCACGTGTTGGA, the “relative binding free energy” value turned out to be 0.24 kcal/mol. To AGTGCCACGTGGCGGG belongs -0.28 kcal/mol; to TATGGCACGTGTAGAT, 0.19 kcal/mol. Turning to TGGGGCACGTGGAGCT, the “relative binding free energy” value is -0.19 kcal/mol. For the sequence TATAGCACGTGATGTC, the “relative binding free energy” value turned out to be 0.12 kcal/mol. The same measure for ATTTACACGTGGATGT: 0.03 kcal/mol; for TTTCACACGTGTGTTG: -0.05 kcal/mol. To GGTGTCACGTGATTTA belongs 0.21 kcal/mol; to TTCGTCACGTGCTATG, -0.01 kcal/mol. To GAAGTCACGTGTGGCT belongs 0.21 kcal/mol; to AGGGGCACGTGAAGCT, 0.16 kcal/mol; to TAACTCACGTGGGTGA, 0.07 kcal/mol. In the case of GGTTGCACGTGTGTGT, the “relative binding free energy” value was 0.05 kcal/mol.

With TTAGGCACGTGCCGTA, the “relative binding free energy” value was -0.14 kcal/mol. The same measure for CTGTGCACGTGGGTTA: -0.1 kcal/mol; for TATGGCACGTGTGTGC: -0.15 kcal/mol; for GGGGGCACGTGAGAGA: 0.21 kcal/mol. To TGGGTCACGTGGAGAC belongs 0.07 kcal/mol; to TGAGTCACGTGGCAAG, 0.03 kcal/mol.

On to AGATACACGTGTCGTG, for which the “relative binding free energy” value was 0.05 kcal/mol. The same measure for TACTACACGTGGGTTG: -0.01 kcal/mol.

Turning to GTAGGCACGTGGGAAG, the “relative binding free energy” value is -0.09 kcal/mol. To TGATACACGTGATGTG belongs 0.12 kcal/mol. The same measure for TTGTACACGTGTGTGT: 0.05 kcal/mol; for GGTATCACGTGGGGAA: 0.13 kcal/mol; for GGATTCACGTGTTGAG: 0.32 kcal/mol. TGTTTCACGTGGGTTG: the “relative binding free energy” value worked out at 0.23 kcal/mol. Regarding CGGGCCACGTGGTCTG, the “relative binding free energy” value is -0.13 kcal/mol.

For CGTCGCACGTGGTGGT, the “relative binding free energy” value was -0.11 kcal/mol. The same measure for TTTTTCACGTGCATTT: 0.35 kcal/mol; for TAGGACACGTGTGTCG: 0.08 kcal/mol. ATCGGCACGTGGTGAA: the “relative binding free energy” value was 0.02 kcal/mol. To TTAATCACGTGGGCAG belongs -0.05 kcal/mol.

Source of the values: the BET-seq Pho4 binding data (Le et al. 2018).
